# Experimental data from PubChem BioAssay AID686979 (National Center for Advancing Translational Sciences (NCATS), 2013).
# About 50,000 (12%) of roughly 420,000 compounds were called active. The inconclusive results got no clear call from the source; some entries with a clear call stand among them for comparison. Calls come from the whole dose curve; as a rule, active = well fitted inhibition curve with a large enough effect; inconclusive = small, poorly fitted or top-dose-only effect; inactive = flat fitted curve, though single readings scatter. Potencies of inconclusive entries are left out as doubtful fits.
# Test: qHTS for Inhibitors of human tyrosyl-DNA phosphodiesterase 1 (TDP1): qHTS in cells in presence of CPT; note: nearly all actives have a fitted effect of over 55% in size
# Conditions: chicken DT40 Tdp1-/-;hTDP1 cells + 20 nM CPT, ATP luminescence, 48 h; activity change, negative = growth inhibition: at 46.2 µM (top of the series) unless noted
# Summary of the method: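 Cell growth measured by CellTiter-Glo luminescence after a minimum 48 h, 37 C compound exposure with 20 nM CPT in Tdp1-knockout DT40 cells stably expressing hTDP1, seeded 400/well; qHTS titration format.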
# % is set by controls: 0 for no effect and ±100 for the full control effect; potency is the fitted concentration of half-maximal effect; tags give direction and shape of the fitted curve.
SMILES,Potency,"activity change, negative = growth inhibition"
C=CCOC(=O)C1=C(C)Nc2nnnn2C1c1cccs1 (stereo not given),inactive,
Cc1c(C(=O)N2CCCC2)oc2c1-c1nn(CC(=O)NCc3ccccc3F)cc1CC2,"inconclusive [inhibitor, single point]",
O=C(Nc1ccc(OCC(=O)N2CCOCC2)cc1)Nc1cccc(Cl)c1,inactive,
Cc1ccc(NC(=O)c2cc(NC(=O)c3ccco3)ccc2N2CCOCC2)cc1Cl,"inconclusive [inhibitor, partial curve]",
COc1ccc(NC(=O)CS(=O)(=O)Cc2ccccc2)c([N+](=O)[O-])c1,inactive,
COCCNc1ncnc2c1ncn2[C@H]1CN(CCc2ccccc2)C[C@@H](CO)O1,inactive,
COc1ccc(Cl)cc1NC(=O)C1COc2ccccc2O1 (stereo not given),inactive,
COc1ccc(OC)c(C2=NOC(C(=O)NCc3cccnc3)C2)c1 (stereo not given),"inconclusive [inhibitor, partial curve, poor fit]",
Cc1ccc(Cc2c(-c3ccc(C#N)cc3)nc3c(C)cc(Br)cn23)cc1,"inconclusive [inhibitor, single point]",
Oc1ccc(/C=N/NC(=S)NCCN2CCOCC2)c(O)c1,"inconclusive [inhibitor, full curve]",
CC(C)OCCCNC(=O)C1CCC(CNS(=O)(=O)c2cccc3nsnc23)CC1 (stereo not given),"inconclusive [inhibitor, single point]",
C[C@@H]1CN([C@H](C)CO)S(=O)(=O)c2ccc(Br)cc2O[C@@H]1CN(C)C(=O)NC1CCCC1,"inconclusive [inhibitor, single point]",
Cc1sc(NC(=O)C2c3ccccc3Oc3ccccc32)c(C(=O)OC(C)C)c1C,active: 18.4 µM,
CCN(c1cccc(C)c1)S(=O)(=O)c1cc2c3c(c1)CCC(=O)N3CCC2,"inconclusive [inhibitor, single point]",
Cc1ccc(CNC(=O)COC(=O)c2ccc(S(=O)(=O)N3CCCCCC3)cc2)cc1,"inconclusive [inhibitor, single point]",
CCc1nn2c(=O)c(S(=O)(=O)Nc3ccc(C)cc3C)c(C)nc2s1,"inconclusive [inhibitor, single point]",
CCCCn1c(N)c(N(CCOC)C(=O)c2ccc(C)o2)c(=O)[nH]c1=O,inactive,
O=C(CCSc1ccc(Cl)cc1)N1CCCCCC1,"inconclusive [inhibitor, partial curve]",
C=CCNC(=S)Nc1sc2c(c1C(=O)OCC)CCN(C(=O)OCC)C2,inactive,
COc1ccccc1C(=O)Nc1ccc(N2CCN(Cc3ccccc3)CC2)cc1,"inconclusive [inhibitor, single point]",
CCCNC(=O)C1(C)CCCN(Cc2cccc(C(F)(F)F)c2)C1 (stereo not given),active: 18.4 µM,
COc1ccc(NC(=O)CN2CCN(Cc3ccc4c(c3)OCO4)CC2)cc1OC,inactive,
O=C(CSc1nc2ccccc2n1S(=O)(=O)c1ccccc1)N1CCCC1,inactive,
COc1ccc(C(=O)CN2C(=O)c3ccccc3C2=O)cc1,inactive,
Cc1cc(N2CCCC2)nc2ccc(NC(=S)NCCCN3CCC(C)CC3)cc12,"inconclusive [inhibitor, single point]",

SMILES,Potency,"activity change, negative = growth inhibition"
CCS(=O)(=O)N1N=C(c2cccc(NS(C)(=O)=O)c2)CC1c1ccc(C)cc1 (stereo not given),inactive,
CN(C)C(=O)c1ccc(NC(=O)COc2cccc3c2OC(C)(C)C3)cc1,inactive,
O=C(CSCCS(=O)(=O)c1ccc(Cl)cc1)Nc1ccccc1,inactive,
COc1cccc(NC(=O)C(C)N2C(=O)c3ccccc3S2(=O)=O)c1 (stereo not given),inactive,
Cc1ccc(C(=O)n2nc(C#N)c(C#N)c2N)cc1,inactive,
COc1ccccc1CNC(=O)c1cc2cccc3c2n1CCS3,active: 18.4 µM,
COc1cc(-c2cnc3c(NC(C)=O)cc(-c4ccc(N5CCN(C)CC5)cc4)cn23)cc(OC)c1OC,active: 4.61 µM,
CC(C)CSc1nc(N2CCOCC2)c2c(c1C#N)CC(C)(C)SC2,"inconclusive [inhibitor, single point]",
CC(C)NC(=O)C1=CC(c2ccc3c(c2)OCO3)=NS(=O)(=O)N1C,inactive,
N#Cc1ccccc1NC(=O)Nc1ccc(Cl)cc1,inactive,
CCN(C(=O)c1cc2c(s1)-c1ccccc1OC2)c1cc(OC)ccc1OC,"inconclusive [inhibitor, single point]",
O=C(NCc1ccc(F)cc1)C1CCN(c2cnccn2)CC1,active: 18.4 µM,
COc1ccc([N+](=O)[O-])cc1NC(=O)CCSCCc1ccccn1,"inconclusive [inhibitor, single point]",
O=C(NCc1ccc(Cl)cc1)C(=O)NCC1CCCN1S(=O)(=O)c1cccs1 (stereo not given),"inconclusive [inhibitor, single point]",
CCOC(=O)C1=C(c2ccccc2)c2ccccc2N(S(=O)(=O)C(F)(F)F)C1C(=O)OCC (stereo not given),"inconclusive [inhibitor, single point]",
CN(C1CCS(=O)(=O)C1)S(=O)(=O)c1ccccc1[N+](=O)[O-] (stereo not given),inactive,
Cc1cc(O)c(C(C)C)cc1N=Cc1ccc([N+](=O)[O-])cc1,active: 7.31 µM,
Cc1ccc(NC(=O)CN(C)C(=O)c2ccc(Cl)c([N+](=O)[O-])c2)cc1,"inconclusive [inhibitor, single point]",
CCOCCCN1CN(Cc2ccco2)CNC1=S,inactive,
COc1ccc(OC)c(C2CC(=O)N3CN(c4ccccc4)CSC3=C2C#N)c1 (stereo not given),"inconclusive [inhibitor, single point]",
NC(=O)C1CCN(C(=O)COc2ccc3c4c(c(=O)oc3c2)CCC4)CC1,inactive,
CCCc1nc2sc3c(=O)n(N)cnc3c2c2c1CCCC2,active: 11.6 µM,
Cc1nn(Cc2ccccc2)c(C)c1NC(=O)CCCn1nc([N+](=O)[O-])c(Cl)c1C,inactive,
CC1(C)CC(=O)C2=C(C1)Oc1ncn(CCCn3ccnc3)c(=N)c1C2c1ccccc1 (stereo not given),,inconclusive: -22% [inhibitor]
COc1ccc(NC(=O)N/C=C/c2ccco2)cc1,,inconclusive: -36.1% [inhibitor]

SMILES,Potency,"activity change, negative = growth inhibition"
COc1ccc(-c2nnc(Nc3nc4c(OC)cccc4s3)o2)c(OC)c1,active: 4.61 µM,
COCCn1c(=N)c(C(=O)NCCc2ccccc2)cc2c(=O)n3cccc(C)c3nc21,"inconclusive [inhibitor, single point]",
CN1CCC(NC(=O)c2cc(-c3cccc(Br)c3)nc3ccccc23)CC1,"inconclusive [inhibitor, single point]",
Cc1cc(=O)[nH]c(N/N=C/c2ccc(F)cc2)n1,inactive,
CCCCCCCNC(=O)C1(CC2CC(c3cccc(Br)c3)=NO2)CCN(C(=O)C2CCCC2)CC1 (stereo not given),active: 20.6 µM,
COc1ccc(-c2nnn(CC(=O)N(Cc3ccco3)C(C(=O)NCC3CCCO3)c3ccco3)n2)cc1 (stereo not given),"inconclusive [inhibitor, single point]",
CS(=O)(=O)N(CC(=O)N1CCCCCC1)c1cccc(Cl)c1Cl,"inconclusive [inhibitor, single point]",
COc1cc(/C=C/CO)cc(OC)c1OC/C=C(\C)CCC=C(C)C,"inconclusive [inhibitor, single point]",
O=C1COc2ccc(C(=O)COC(=O)c3c(F)cccc3Cl)cc2N1,inactive,
OC(c1ccc(F)cc1)c1nc(-c2cncnc2)cs1 (stereo not given),"inconclusive [inhibitor, partial curve]",
O=C(CCCN1C(=O)/C(=C\c2ccco2)SC1=S)Nc1ccc2ccccc2c1,"inconclusive [inhibitor, single point]",
CCCN1CCN(c2ncnc3sc(C(=O)Nc4ccc(OC(F)(F)F)cc4)c(C)c23)CC1,"inconclusive [inhibitor, single point]",
COc1ccc(-n2nnnc2SCC(=O)c2ccc(OC)c(OC)c2)cc1,"inconclusive [inhibitor, partial curve, poor fit]",
COc1cccc2c3c(c(=O)[nH]c12)CCC(C)(C)O3,"inconclusive [inhibitor, single point]",
CCn1ncc(C2=NOC(C(=O)Nc3ccc4c(c3)OCO4)C2)c1C (stereo not given),"inconclusive [inhibitor, single point]",
CC1CCN(c2nc3ccccc3nc2SCC(=O)Nc2ccccc2C(C)C)CC1,active: 18.4 µM,
O=C(Cc1ccccc1)NNC1CC(=O)N(c2ccc(Br)cc2)C1=O (stereo not given),inactive,
O=C(O)c1cc(O)ccc1N=Nc1ccccc1,"inconclusive [inhibitor, single point]",
COC(=O)c1ccc(Cn2c(C)c(C(=O)Nc3cccc(Oc4ccccc4)c3)sc2=O)o1,"inconclusive [inhibitor, single point]",
O=C(CN1CCN(S(=O)(=O)c2ccccc2F)CC1)Nc1ccccc1C(=O)c1ccccc1,"inconclusive [inhibitor, single point]",
Cc1ccc(CC(=O)OC(C)C(=O)NC2CCCCC2C)cc1C (stereo not given),"inconclusive [inhibitor, single point]",
COc1cccc(NC(=O)COc2ccc(Br)c(C)c2)c1,inactive,
O=C(CSc1nnnn1C1CCCCC1)NCc1cccs1,inactive,
O=C(O)CN1C(=O)/C(=C\c2cc([N+](=O)[O-])ccc2OCc2ccccc2Cl)SC1=S,inactive,
O=C(N/N=C/c1ccc[nH]1)c1ccc([N+](=O)[O-])cc1,inactive,
